# Test results from paper PMC4336329 (PLoS ONE, 2015).
# The whole screen tested about 310,000 compounds, of which about 2,200 (0.71%) showed an effect of 50% or more. Effects have a minus sign here. Some of the results follow.
# Molecular target: human ether-à-go-go-related gene (hERG) potassium channel (human, UniProt Q12809)
# Assay: primary screen, population patch clamp on CHO cells stably expressing hERG
# human ether-à-go-go-related gene (hERG) potassium channel, sequence (Q12809 whole entry, looked up): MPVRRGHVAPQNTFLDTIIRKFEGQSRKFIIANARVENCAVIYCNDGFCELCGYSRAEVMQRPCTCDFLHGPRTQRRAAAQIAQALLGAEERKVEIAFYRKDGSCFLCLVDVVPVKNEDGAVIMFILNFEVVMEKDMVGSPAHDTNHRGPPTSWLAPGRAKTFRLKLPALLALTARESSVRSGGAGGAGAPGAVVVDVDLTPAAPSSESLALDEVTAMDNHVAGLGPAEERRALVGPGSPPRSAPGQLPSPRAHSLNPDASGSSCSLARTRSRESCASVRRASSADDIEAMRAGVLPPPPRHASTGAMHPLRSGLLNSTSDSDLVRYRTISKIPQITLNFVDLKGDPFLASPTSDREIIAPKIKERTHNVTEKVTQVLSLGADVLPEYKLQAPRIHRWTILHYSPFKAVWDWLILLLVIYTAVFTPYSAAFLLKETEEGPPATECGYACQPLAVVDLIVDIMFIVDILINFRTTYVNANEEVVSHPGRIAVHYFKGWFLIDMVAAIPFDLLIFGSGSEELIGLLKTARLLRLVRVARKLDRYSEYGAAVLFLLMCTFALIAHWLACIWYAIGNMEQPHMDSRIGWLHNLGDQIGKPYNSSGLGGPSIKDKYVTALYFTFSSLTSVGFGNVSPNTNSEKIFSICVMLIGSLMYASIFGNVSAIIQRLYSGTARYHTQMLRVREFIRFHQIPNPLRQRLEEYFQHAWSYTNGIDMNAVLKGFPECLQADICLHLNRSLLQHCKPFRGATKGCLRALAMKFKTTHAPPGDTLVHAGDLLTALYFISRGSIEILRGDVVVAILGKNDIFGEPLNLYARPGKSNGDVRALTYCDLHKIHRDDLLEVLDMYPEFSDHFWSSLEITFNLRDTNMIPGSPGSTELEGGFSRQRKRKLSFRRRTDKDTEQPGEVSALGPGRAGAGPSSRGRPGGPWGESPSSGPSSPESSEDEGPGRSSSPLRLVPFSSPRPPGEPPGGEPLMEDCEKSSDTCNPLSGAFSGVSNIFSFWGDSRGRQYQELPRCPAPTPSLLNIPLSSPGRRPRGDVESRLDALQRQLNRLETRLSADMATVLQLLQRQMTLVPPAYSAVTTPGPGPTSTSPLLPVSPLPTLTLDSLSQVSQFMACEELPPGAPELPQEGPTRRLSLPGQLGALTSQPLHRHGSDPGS
row,SMILES,"hERG current change (%, negative = inhibition) at 1uM [%]"
1,Cc1ccsc1S(=O)(=O)N1CCC(CO)(CC2CCCCO2)CC1 (centres unmarked),7.47
2,CCOC(=O)N1CCN(C(=O)C2CCCN(S(=O)(=O)c3ccc(C)cc3)C2)CC1 (centres unmarked),-6.54
3,Cc1c(C)n(-c2ccc(Cl)cc2)c2ncnc(N)c12,11.9
4,N#Cc1c(-c2ccccc2)cc(-c2ccccc2)nc1SCC(=O)NCC(=O)O,-0.814
5,CN1N=C(/C=C/c2ccccc2)CCC1=O,9.02
6,COC(=O)COc1ccc(S(=O)(=O)Nc2ccc(NC(C)=O)cc2)cc1,16.3
7,CCC(CC)C(=O)N1CC(=O)Nc2ccc(F)cc2C1c1ccc(F)cc1 (centres unmarked),5.45
8,CCC(=O)c1ccccc1OCCN1C(=O)NC(C)(C)C1=O,3.66
9,COc1ccc(Cc2nc3ccccc3[nH]c2=O)cc1,19.1
10,O=C1C(=Cc2ccco2)C(=O)c2ccccc21,2.23
11,Cc1ccsc1/C=N/n1c(-c2ccncc2)n[nH]c1=S,19.8
12,Cc1cc(C)n2c(SCC(=O)NC3CCCCC3C)nnc2n1 (centres unmarked),1.06
13,c1ccc(CSc2ccc3nnc(-c4ccccn4)n3n2)cc1,-26.6
14,CC(=O)N1c2ccc(S(=O)(=O)NCC3CCC(C(=O)Nc4ccc(C)cn4)CC3)cc2CC1C (centres unmarked),14.4
15,C[C@@H](C(=O)N1CCNCC1)n1cc(CCCN=C(N)N)nn1.Cl,14.3
16,COCCNC(=S)N1CCN(S(C)(=O)=O)CC1,19.1
17,CC(C)c1ccc(OCC(=O)N2CCN(C)CC2)c(Br)c1,-12.1
18,CCn1c(SCC(=O)Nc2cc(C)ccc2C)nc2c(c1=O)SC(C)C2 (centres unmarked),-14.2
19,COc1ccc(C(CNC(=O)CN2C(=O)NC3(CC(C)CC(C)(C)C3)C2=O)N2CCOCC2)cc1 (centres unmarked),14.3
20,CCCOc1ccc(N2CC(C(=O)Nc3ccccn3)CC2=O)cc1 (centres unmarked),-1.16
21,COC(=O)C(C(=O)NCC1CCCO1)C1CCCC1 (centres unmarked),15
22,CC(O)[C@H]1CNC(=O)C(=O)N1CC1CCCCC1 (some centres unmarked),14.2
23,CCN(c1ccccc1)S(=O)(=O)c1ccc(C(=O)Nc2cccc(C)n2)cc1,9.71

row,SMILES,"hERG current change (%, negative = inhibition) at 1uM [%]"
1,O=C(CSc1nc2ccccc2c(=O)n1-c1ccccc1Cl)NC1CCS(=O)(=O)C1 (centres unmarked),12.9
2,CCC(=O)Nc1cnc(NC(=O)c2cccc(F)c2)cc1C,-7.96
3,O=C1CCC([N+](=O)[O-])C(c2cccc3ccccc23)N1 (centres unmarked),3.47
4,CC(C)N(c1ccccc1)c1ncnc(NCCC(=O)O)c1[N+](=O)[O-],7.27
5,COc1cc(S(=O)(=O)Nc2ccc(C)cc2)ccc1N=Cc1c(C)[nH]n(-c2ccccc2)c1=O,16.6
6,CCOC(=O)CNc1c(-c2ccc(OC)cc2)nc2ccc(Cl)cn12,-68.4
7,O=C(Nc1ccc(Cl)cn1)C1CCN(S(=O)(=O)c2cccs2)CC1,-12.1
8,CC(=O)c1sc(NC(=O)c2ccccc2F)nc1C,4.9
9,Cc1ccc(-c2cccc(C(=O)NCc3ccccc3)n2)c2ccccc12,12.7
10,CCc1ccccc1NC(=O)COc1ccc2oc(-c3ccc(OC)cc3)cc(=O)c2c1,9.33
11,O=C(OCCCCN1C(=O)c2ccccc2C1=O)c1ccc(Br)o1,12.8
12,C/C(=C\C(=O)c1ccccc1)NNC(=O)c1ccc(Cl)cc1,7.46
13,CC(C)(C)N(Cc1ccccc1)C(=O)c1ccc(Cl)cc1[N+](=O)[O-],18.3
14,CCOC(=O)c1sc(NC(=O)c2ccc(CC)s2)nc1C,1.85
15,CN1CCN(S(=O)(=O)c2ccc(CNC(=O)c3ccccc3)s2)CC1,12.8
16,Cc1sc2ncnc(N3CCN(Cc4ccccc4)CC3)c2c1-c1ccccc1,11.7
17,CCC1(c2ccc(F)cc2)NC(=O)N(CC(=O)Nc2ccc(S(N)(=O)=O)cc2)C1=O (centres unmarked),8.71
18,O=c1c2ccccc2nc(/C=C/c2ccc3c(c2)OCO3)n1-c1cccc(O)c1,3.69
19,N#Cc1cc([N+](=O)[O-])ccc1NCCN1CCOCC1,-8.64
20,Oc1ccc(Cc2ccc(Cl)cc2)c(O)c1,10.6
21,CCN1C(=O)c2c(C)nc3ccccc3c2C1=O,2.48
22,Cc1nn(C(C)C(=O)NCCCN2CCCC2)c(=O)c2nn(-c3ccccc3)c(C)c12 (centres unmarked),10.8
23,Cl.NOCC(=O)O,13

row,SMILES,"hERG current change (%, negative = inhibition) at 1uM [%]"
1,O=C(O)c1ccccc1Nc1ccnc(Cl)n1,12.5
2,CCOc1ccc(-n2c(=O)c3c(C)c(C)sc3n(CC(=O)NCc3ccco3)c2=O)cc1,6.41
3,CCOc1nc(SCCOc2ccc(Cl)cc2Cl)nc(N(C)C)n1,13.2
4,C[N+](C)(C)Cc1ccccc1.[Cl-],14.2
5,COC(=O)c1ccccc1NC(=O)Cc1ccccc1OC,0.402
6,O=C(CC1C(=O)NCCN1Cc1ccc(-c2ccccc2)cc1)NCC1CC1 (centres unmarked),-4.81
7,Oc1c(Br)cc(Br)cc1C=NCc1ccccc1,9.16
8,CCCCN1CCc2c([nH]c3ccc(C)cc23)C1=O,9.53
9,CC(C)CN1CCN(Cc2cccn2-c2ccccn2)CC1CCO (centres unmarked),-18.8
10,CCC(C)c1ccc(NC(=O)C2CC3CCC2C3)cc1 (centres unmarked),14
11,Cc1c(C(=O)NCC2CCCO2)oc2ccc(S(=O)(=O)N3CCCC3)cc12 (centres unmarked),11
12,Nc1cc(C(=O)O)ccc1Sc1ccccc1C(=O)O,12.9
13,COC(=O)c1sccc1NC(=O)CC1C(=O)NCCN1C(=O)Nc1ccc(F)cc1F (centres unmarked),6.74
14,COc1ccccc1Cn1c(=S)[nH]c2cc(C(=O)NC(C)C)ccc2c1=O,8.91
15,O=c1[nH]c(=O)n(C2CCCCCC2)c(O)c1C=NCCCN1CCOCC1,12.8
16,O=C(c1cc2ccccc2oc1=O)N1CCN(C(=O)C2CCCO2)CC1 (centres unmarked),4.25
17,CCOC(=O)C1(Cc2ccccc2C)CCCN(Cc2cn(C)nc2C)C1 (centres unmarked),9.7
18,CCC1(CC)C(=N)N(C)C(=O)NC1=O,17.9
19,O=C(COc1ccc2ccccc2c1)NC1=NCCS1,11.8
20,CCn1c(CNc2ccc(C(=O)O)cc2)nc2ccccc21,3.87
21,CCn1nnc(NC(=O)c2cccnc2)n1,11.5
22,CC1=NC(=O)C(N=Nc2cccc(C(=O)O)c2)N1c1ccccc1 (centres unmarked),15.8
23,COC(=O)C1(Cc2ccc(O)c(CC3OC3(C)C)c2)OC(=O)C(O)=C1c1ccc(O)cc1 (centres unmarked),12

row,SMILES,"hERG current change (%, negative = inhibition) at 1uM [%]"
1,COc1ccccc1NC(=O)N1CCc2[nH]c3ccc(F)cc3c2C1,5.99
2,Cc1ccc(S(=O)(=O)c2nc(Nc3nccs3)sc2Cl)cc1,15.3
3,S=c1nc2ccccc2c2nc(-c3ccccc3)[nH]n12,17.9
4,O=C(Nc1cccc(F)c1)OC(CN1CCCCC1)C(F)(F)F (centres unmarked),5.13
5,Fc1ccccc1NC(=S)NCc1ccc2c(c1)OCO2,6.42
6,CC12CC(NC(=O)N1c1cccc(C(=O)N3CCN(c4ccccn4)CC3)c1)c1ccccc1O2 (centres unmarked),6.79
7,Cc1ccc(CN2C(=O)CCC2C(=O)NCc2ccccc2Cl)cc1 (centres unmarked),7.62
8,Cc1ccc(-c2nnc(SCC(=O)NC3CC3)n2N)cc1,3.61
9,O=c1c2ccccc2nc(-c2ccco2)n1Cc1ccccc1,-5.48
10,Cl.O.O=C(CCN1CCOCC1)Nc1ccc2c(c1)N(C(=O)CN1CCOCC1)c1ccccc1CC2,7.81
11,Cc1cccc(CCN(CC(=O)NC(C)(C)C)C(=O)c2csnn2)c1,12.1
12,O=C1NC(c2ccccc2)=C(c2ccc3ccccc3n2)C(c2ccncc2)N1 (centres unmarked),1.5
13,COc1ccc(C/C(N)=N/OC(=O)COc2ccccc2C)cc1,8.46
14,COc1cccc(NC(=O)c2ccc(S(=O)(=O)NCc3cccnc3)cc2)c1,6.33
15,COc1ccc(NCC(=O)N/N=C/c2cc([N+](=O)[O-])ccc2N2CCCC2)cc1,4.18
16,CCC(C)(C)n1nnnc1CN(Cc1cccs1)Cc1cc2cc(OC)ccc2[nH]c1=O,13.6
17,O=C(CN1C(=O)CSC1=O)N1CCCC(Nc2ccc(F)cc2)C1 (centres unmarked),11.5
18,c1ccc(-c2cnc(CSc3ncnc4sccc34)o2)cc1,10.6
19,N#CCN(CC#N)C(=O)C1c2ccccc2Oc2ccccc21,17.4
20,CCOc1ccc(Br)cc1S(=O)(=O)NCc1ccc(S(N)(=O)=O)cc1,4.06
21,COc1ccccc1NS(=O)(=O)c1cc(NC(=S)Nc2cc(C)cc(C)c2)ccc1Cl,12
22,COc1ccc2c(ccn2S(=O)(=O)c2ccccc2)c1,18.4
23,CCOc1ccc(C(=O)NCc2ccncc2)cc1OCC,6.31
